Reference: the supplement of paper PMC3334620
Whole data set: some 33,000 sequences, median “E-score (-0.5 to 0.5)” near -0.054, cut for the highest 2% near 0.35. This is one part of the list.

The sequences below were run against T1, Stb5 (UniProt P38699) (assay: PBM E-score (8-mer binding enrichment) (E-score (-0.5 to 0.5)); higher = stronger / more preferred TF binding; most listed sequences are background and not binding sites). Settings: protein concentration: 200 nM; construct: GST-full length.
T1 sequence: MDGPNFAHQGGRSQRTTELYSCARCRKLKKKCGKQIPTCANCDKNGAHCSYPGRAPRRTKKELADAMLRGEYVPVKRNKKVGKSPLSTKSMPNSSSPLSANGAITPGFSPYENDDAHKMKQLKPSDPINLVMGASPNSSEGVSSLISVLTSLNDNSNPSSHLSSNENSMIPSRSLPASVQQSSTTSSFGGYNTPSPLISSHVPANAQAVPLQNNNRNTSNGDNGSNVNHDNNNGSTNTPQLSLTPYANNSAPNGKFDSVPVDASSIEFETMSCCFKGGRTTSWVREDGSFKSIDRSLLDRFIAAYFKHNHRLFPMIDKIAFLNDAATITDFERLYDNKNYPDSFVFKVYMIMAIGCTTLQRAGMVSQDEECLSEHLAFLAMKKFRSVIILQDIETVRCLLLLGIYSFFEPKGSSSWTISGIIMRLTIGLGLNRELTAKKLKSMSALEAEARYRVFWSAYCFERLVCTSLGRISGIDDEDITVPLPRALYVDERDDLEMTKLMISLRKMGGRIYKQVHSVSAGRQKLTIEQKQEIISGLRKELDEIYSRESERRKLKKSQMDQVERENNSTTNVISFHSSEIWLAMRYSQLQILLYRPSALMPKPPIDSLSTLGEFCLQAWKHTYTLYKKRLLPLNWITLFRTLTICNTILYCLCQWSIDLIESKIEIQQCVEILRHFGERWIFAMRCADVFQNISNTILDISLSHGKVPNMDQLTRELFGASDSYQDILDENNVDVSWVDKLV
In short: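 Detection of bound protein used fluorescent anti-GST, with scans normalised by masliner. The proteins were GST-tagged yeast transcription factors applied at about 100-200 nM to universal all-10-mer Agilent arrays made double-stranded by primer extension. Each ungapped eight-base word, pooled with its reverse complement, was scored with an E-score from the Universal PBM Analysis Suite.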

| Sequence | PBM E-score |
| --- | --- |
| ACAACGAA | 0.0504 |
| ACAATTCC | -0.113 |
| ATCGTTTA | -0.0656 |
| AGCTGGAG | -0.251 |
| ATGCGCCC | 0.237 |
| ATGAAGGG | -0.104 |
| GACAGTAA | 0.00946 |
| TGAATAAA | -0.0649 |
| CGTTGGGA | 0.0257 |
| CTACGGAG | 0.322 |
| GCCAGACC | -0.047 |
| CGGGATAG | 0.095 |
| CAAGCTAC | -0.217 |
| AGGGCTTG | -0.288 |
| CAATGAAC | -0.124 |
| ACACCACG | -0.0664 |
| ACCATGAG | -0.0914 |
| CTATCGTA | -0.0849 |
| AGATCCTC | -0.216 |
| CAATTTTC | -0.0207 |
| AGGGGGCA | -0.361 |
| ATCTGTTA | -0.241 |

| Sequence | PBM E-score |
| --- | --- |
| CGATCCCA | -0.206 |
| AAGAAACT | -0.159 |
| AACATAAT | 0.0164 |
| ATTATGGC | -0.0217 |
| GTGGTATA | -0.0221 |
| CAAAATGA | -0.0462 |
| CCCCCTGA | -0.368 |
| ACGAGCAA | -0.156 |
| CCTTATCC | 0.00435 |
| CATCGAAA | -0.136 |
| ACTCGATA | -0.0816 |
| AATGTCGG | 0.329 |
| AATACGCG | -0.00472 |
| CCCCTATA | -0.0319 |
| TATCATCA | -0.0117 |
| GAATCAGC | -0.094 |
| CCAAAGCG | 0.129 |
| ATATTGGG | -0.0282 |
| AGTTAACT | 0.111 |
| CATGTCAA | -0.311 |
| AATGACCC | 0.0742 |
| ATCTCAAC | -0.0536 |

| Sequence | PBM E-score |
| --- | --- |
| CCCTATTA | -0.137 |
| ACAGGGTG | -0.166 |
| AGAGCGCG | 0.0352 |
| CAGGCCAA | -0.145 |
| CACCAATC | -0.0305 |
| ACGAGTCT | -0.319 |
| CTGGCAGA | -0.192 |
| CTACGTCA | -0.099 |
| CACGTTAG | -0.179 |
| GGCGTTAA | 0.327 |
| ACAGCGGT | 0.304 |
| GTCAACTA | -0.174 |
| ATCACGGA | 0.217 |
| ACAGAGCC | -0.166 |
| CCGTGTCG | 0.201 |
| GAGGAGAC | -0.0683 |
| AGTGTTCA | -0.0169 |
| CTGTGCCC | -0.0978 |
| ACCCGTCC | -0.0174 |
| GAAACCAA | -0.0238 |
| ACGTGCTG | -0.167 |
| AAGCGCGC | 0.159 |

| Sequence | PBM E-score |
| --- | --- |
| ATAGGGCC | 0.133 |
| TCCTAGAA | -0.0339 |
| CCGAGTTC | 0.0441 |
| TCCGGGCA | 0.179 |
| CGATACGC | 0.109 |
| CCTCGATC | -0.191 |
| CCACGGTA | 0.27 |
| ACGCGCTG | -0.0586 |
| TGGGGGAA | -0.176 |
| AATGGGGA | -0.165 |
| GTCACCAA | -0.108 |
| GACACAAC | -0.0253 |
| GCATATGA | -0.039 |
| AAACAGTA | -0.118 |
| CGAGCCTA | -0.0743 |
| AAGAGTTA | -0.0879 |
| AATGGGCG | -0.0438 |
| CCTTTAGC | -0.0445 |
| CATACCGC | 0.307 |
| AGCTCGTG | -0.0786 |
